Where a name gives a salt, the structure may show the parent alone. ± gives the standard deviation of the averaged measurements. Over roughly 2,600 compounds, “MBP+ mature oligodendrocyte number relative to DMSO vehicle control” has its median near -0.34; the highest 2% begin near 13. The list shows a part of the results.

Results on 76 compounds are retold here after the supplement of paper PMC6135742.
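Also: 10 µM single dose with 3-day oligodendrocyte differentiation.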

For the assay, the system named is jimpy (Plp1 jimpy) mouse iPSC-derived oligodendrocyte progenitor cells. The experiment in a line: MBP+ mature oligodendrocyte number relative to DMSO vehicle control (SDs above negative control mean); higher = more surviving jimpy oligodendrocytes (rescue). Particulars: 10 µM; 3 days.
On to `O=C(O)c1ccc(C=C2SC(=S)N(c3cccc(C(F)(F)F)c3)C2=O)cc1`, for which the “MBP+ mature oligodendrocyte number” value was 2.43.

For `CC(C)c1nc(CN(C)C(=O)N[C@@H](CCN2CCOCC2)C(=O)N[C@H](CC[C@H](Cc2ccccc2)NC(=O)OCc2cncs2)Cc2ccccc2)cs1` [Cobicistat (GS-9350)], the “MBP+ mature oligodendrocyte number” value was -4.02.

On to `C#C[C@]1(O)CC[C@H]2[C@@H]3CCC4=Cc5oncc5C[C@]4(C)[C@H]3CC[C@@]21C` [Danazol], for which the “MBP+ mature oligodendrocyte number” value was 4.9.

Consider `Cc1cccc(-c2nn3c(c2-c2ccnc4ccc(C(N)=O)cc24)CCC3)n1`, for which the “MBP+ mature oligodendrocyte number” value is -2.18.

As for `O=C(Nc1cccnc1)N1CCC(Cc2cccc(Oc3ccc(C(F)(F)F)cn3)c2)CC1` [PF 3845 hydrate], the “MBP+ mature oligodendrocyte number” value was 10.1.

Consider `O=C(Nc1cccnc1)N1CCC(Cc2cccc(Oc3ccc(C(F)(F)F)cn3)c2)CC1`, for which the “MBP+ mature oligodendrocyte number” value was determined as 19.5.

In the case of `O=C(Nc1ccc([N+](=O)[O-])cc1Cl)c1cc(Cl)ccc1O` [Niclosamide], the “MBP+ mature oligodendrocyte number” value is -2.83.

With `Cc1cc(C)nc(NS(=O)(=O)c2ccc(NC(=S)NC(=O)COc3ccc(Br)cc3Cl)cc2)n1`, the “MBP+ mature oligodendrocyte number” value is -0.692.

For `O=c1cc[nH]c(=O)[nH]1` [Uracil], the “MBP+ mature oligodendrocyte number” value was 1.5.

`CCOC(=O)N1c2ccc(C(F)(F)F)cc2[C@@H](N(Cc2cc(C(F)(F)F)cc(C(F)(F)F)c2)C(=O)OC)C[C@H]1CC` [Torcetrapib]: the “MBP+ mature oligodendrocyte number” value is -0.372.

`Cc1ccc(C(=O)Nc2cccc(C(F)(F)F)c2)cc1Nc1nc(-c2cccnc2)nc2c1cnn2C`: the “MBP+ mature oligodendrocyte number” value is less than -4.81.

As to `COc1ccc(-c2cc(=O)c3c(OC)c(OC)c(OC)c(OC)c3o2)cc1OC` [Nobiletin], the “MBP+ mature oligodendrocyte number” value is -4.53.

For `CCC[C@@H]1C[C@@H](C(=O)N[C@@H]([C@H]2O[C@H](SC)[C@H](O)[C@@H](O)[C@H]2O)[C@@H](C)O)N(C)C1` [Lincomycin HCl], the “MBP+ mature oligodendrocyte number” value was determined as 2.41.

Take `N#Cc1c(Oc2ccc(F)c(NC(=O)Cc3cccc(C(F)(F)F)c3)c2)ccc2nc(NC(=O)C3CC3)sc12`: the “MBP+ mature oligodendrocyte number” value is -1.96.

As to `CO[C@H]1C[C@@H]2CC[C@@H](C)[C@@](O)(O2)C(=O)C(=O)N2CCCC[C@H]2C(=O)O[C@H]([C@H](C)C[C@@H]2CC[C@@H](OC(=O)C(C)(CO)CO)[C@H](OC)C2)CC(=O)[C@H](C)/C=C(\C)[C@@H](O)[C@@H](OC)C(=O)[C@H](C)C[C@H](C)/C=C/C=C/C=C/1C`, the “MBP+ mature oligodendrocyte number” value was -5.21.

For the compound `CO[C@H]1C[C@@H]2CC[C@@H](C)[C@@](O)(O2)C(=O)C(=O)N2CCCC[C@H]2C(=O)O[C@H]([C@H](C)C[C@@H]2CC[C@@H](OC(=O)C(C)(CO)CO)[C@H](OC)C2)CC(=O)[C@H](C)/C=C(\C)[C@@H](O)[C@@H](OC)C(=O)[C@H](C)C[C@H](C)/C=C/C=C/C=C/1C` [Temsirolimus], the “MBP+ mature oligodendrocyte number” value was -2.95.

Regarding `NNC(=O)c1ccncc1` [Isoniazid], the “MBP+ mature oligodendrocyte number” value was -0.197.

For `CN(C(=O)CCCOc1ccc2[nH]c(=O)ccc2c1)C1CCCCC1` [Cilostamide], the “MBP+ mature oligodendrocyte number” value amounted to 1.65.

For `COc1ccc(Br)cc1S(=O)(=O)NC(=O)/C=C/c1ccccc1Cc1ccc2ccccc2c1`, the “MBP+ mature oligodendrocyte number” value worked out at 0.117.

Take `Cc1ccc(S(=O)(=O)OCC(=O)Nc2ccc(C(=O)O)c(O)c2)cc1`: the “MBP+ mature oligodendrocyte number” value amounted to 2.29.

Take `C[C@H]1C[C@H]2[C@@H]3CCC4=CC(=O)C=C[C@]4(C)[C@H]3C(=O)C[C@]2(C)[C@@]1(O)C(=O)CO` [Meprednisone]: the “MBP+ mature oligodendrocyte number” value was found to be 0.433.

As for `O=C(O)CCCN1CCC(O[C@@H](c2ccc(Cl)cc2)c2ccccn2)CC1` [Bepotastine Besilate], the “MBP+ mature oligodendrocyte number” value amounted to 0.739.

Regarding `O=C(Nc1ncc(SCCN2CCCC2)s1)[C@]1(c2ccc(S(=O)(=O)C3CC3)cc2)C[C@H]1C1CCCCC1`, the “MBP+ mature oligodendrocyte number” value is less than -4.81.

In the case of `O=C(O)c1cccnc1` [Nicotinic Acid], the “MBP+ mature oligodendrocyte number” value is -0.287.

For `CCCCc1oc2ccccc2c1C(=O)c1cc(I)c(OCCN(CC)CC)c(I)c1` [Amiodarone hydrochloride], the “MBP+ mature oligodendrocyte number” value is less than -3.34.

For `CCCCc1oc2ccccc2c1C(=O)c1cc(I)c(OCCN(CC)CC)c(I)c1` [Amiodarone HCl], the “MBP+ mature oligodendrocyte number” value is less than -5.15.

In the case of `CN1CCN(c2ccc3nc(-c4c(N)c5c(F)cccc5[nH]c4=O)[nH]c3c2)CC1` [Dovitinib (TKI-258) Dilactic Acid], the “MBP+ mature oligodendrocyte number” value was less than -6.01.

In the case of `CN1CCN(c2ccc3nc(-c4c(N)c5c(F)cccc5[nH]c4=O)[nH]c3c2)CC1` [Dovitinib (TKI-258, CHIR-258)], the “MBP+ mature oligodendrocyte number” value is -6.35.

Regarding `O=c1[nH]c(=O)n([C@H]2C[C@H](O)[C@@H](CO)O2)cc1I` [Idoxuridine], the “MBP+ mature oligodendrocyte number” value was 0.973.

Regarding `Cc1cccc(N(C)C(=S)Oc2ccc3ccccc3c2)c1` [Tolnaftate], the “MBP+ mature oligodendrocyte number” value amounted to 1.42.

`C=CCNC1=C2C[C@@H](C)C[C@H](OC)[C@H](O)[C@@H](C)/C=C(\C)[C@H](OC(N)=O)[C@@H](OC)/C=C\C=C(/C)C(=O)NC(=CC1=O)C2=O` [17-AAG (Tanespimycin)]: the “MBP+ mature oligodendrocyte number” value is -6.44.

`N[C@@H](COP(=O)(O)O)C(=O)O` [O-Phospho-L-serine]: the “MBP+ mature oligodendrocyte number” value was 0.0686.

Take `COc1ccc(-c2ccc3cc(C(=O)O)ccc3c2)cc1C12CC3CC(CC(C3)C1)C2` [Adapalene]: the “MBP+ mature oligodendrocyte number” value worked out at 0.807.

Consider `O=C(O)c1cc2cc(F)ccc2[nH]1` [5-Fluoroindole-2-carboxylic acid], for which the “MBP+ mature oligodendrocyte number” value is -0.708.

On to `NCCc1ccc(O)c(O)c1` [Dopamine HCl], for which the “MBP+ mature oligodendrocyte number” value worked out at 0.0594.

As for `NCCc1ccc(O)c(O)c1` [Dopamine hydrochloride], the “MBP+ mature oligodendrocyte number” value is 10.5.

For the compound `C[C@H](Cc1ccc(O)c(O)c1)[C@@H](C)Cc1ccc(O)c(O)c1`, the “MBP+ mature oligodendrocyte number” value is less than -3.97.

Turning to `COc1ccccc1CN[C@H]1CCCN[C@H]1c1ccccc1`, the “MBP+ mature oligodendrocyte number” value is -0.711.

`NC(N)=NC(N)=Nc1ccccc1` [1-Phenylbiguanide]: the “MBP+ mature oligodendrocyte number” value was determined as 0.289.

For the compound `Cc1c(-c2ccc(-c3ccccc3F)cc2)nc2ccc(F)cc2c1C(=O)O` [Brequinar sodium salt hydrate], the “MBP+ mature oligodendrocyte number” value amounted to 2.47.

Regarding `NC(=O)c1ccccc1` [Benzamide], the “MBP+ mature oligodendrocyte number” value is -1.22.

On to `CN(Cc1cc(Br)cc(Br)c1N)C1CCCCC1` [Bromhexine HCl], for which the “MBP+ mature oligodendrocyte number” value worked out at 12.3.

As to `C[C@H](CS)C(=O)N1CCC[C@H]1C(=O)O` [Captopril], the “MBP+ mature oligodendrocyte number” value was -0.548 ± 0.12.

With `Cn1cnc2c(F)c(Nc3ccc(Br)cc3Cl)c(C(=O)NOCCO)cc21` [Selumetinib (AZD6244)], the “MBP+ mature oligodendrocyte number” value was -2.51.

Consider `Nc1nc(N)c2nc(-c3cccc(O)c3)c(-c3cccc(O)c3)nc2n1`, for which the “MBP+ mature oligodendrocyte number” value is -1.99.

As for `CN1CCN(C(=O)c2cc3cc(Cl)ccc3[nH]2)CC1`, the “MBP+ mature oligodendrocyte number” value was 1.14.

Turning to `CCCN(CC1CC1)c1nc(C)nc(Nc2c(Cl)cc(Cl)cc2Cl)c1Cl`, the “MBP+ mature oligodendrocyte number” value was less than -4.47.

As for `COc1ccc(CNc2nc(N3CCC[C@H]3CO)ncc2C(=O)NCc2ncccn2)cc1Cl` [Avanafil], the “MBP+ mature oligodendrocyte number” value came out at 7.92.

`Nc1ncnc2c1ncn2C1CCCC1` [9-cyclopentyladenine]: the “MBP+ mature oligodendrocyte number” value is -1.18.

Regarding `O=C1NC(c2cccc([N+](=O)[O-])c2)=CCN1c1ccccc1O` [Icilin], the “MBP+ mature oligodendrocyte number” value was found to be 3.07.

With `COc1cc(N)c(Cl)cc1C(=O)OCCN1CCCCC1`, the “MBP+ mature oligodendrocyte number” value was -3.81.

`Cc1c(Nc2ncccc2C(=O)O)cccc1C(F)(F)F` [Flunixin Meglumin]: the “MBP+ mature oligodendrocyte number” value turned out to be 1.85.

`CC[C@H](c1ccc(O)cc1)[C@@H](CC)c1ccc(O)cc1` [Hexestrol]: the “MBP+ mature oligodendrocyte number” value was -0.0525.

`CCCCCC(O)CCCC(=O)O` (stereo unspecified) [5-hydroxydecanoic acid sodium]: the “MBP+ mature oligodendrocyte number” value worked out at 0.136.

On to `OC[C@@H](O)CN1CCN(c2ccccc2)CC1` [Levodropropizine], for which the “MBP+ mature oligodendrocyte number” value stood at 1.34.

As to `N#CC1(c2ccc(NC(=O)c3cccnc3NCc3ccncc3)cc2)CCCC1` [Apatinib], the “MBP+ mature oligodendrocyte number” value stood at 2.86.

Regarding `Cc1ccc(C(=O)Cn2c3c(sc2=N)CCCC3)cc1` [Pifithrin-? (PFT?)], the “MBP+ mature oligodendrocyte number” value is 17.

For the compound `CC(C)(C)NC(=O)[C@H]1CC[C@H]2[C@@H]3CC[C@H]4NC(=O)C=C[C@]4(C)[C@H]3CC[C@]12C` [Finasteride], the “MBP+ mature oligodendrocyte number” value is 2.12.

Consider `C=CC[N+]1([C@H]2C[C@H]3[C@@H]4CC[C@H]5C[C@H](O)[C@@H](N6CCOCC6)C[C@]5(C)[C@H]4CC[C@]3(C)[C@H]2OC(C)=O)CCCC1` [Rocuronium Bromide], for which the “MBP+ mature oligodendrocyte number” value stood at 1.42.

`Cc1ccc(C(=O)N(CCCN)[C@@H](c2oc3cc(Cl)ccc3c(=O)c2Cc2ccccc2)C(C)C)cc1`: the “MBP+ mature oligodendrocyte number” value is less than -4.81.

Turning to `Nc1nc(N)c2nc(-c3ccccc3)c(N)nc2n1` [Triamterene], the “MBP+ mature oligodendrocyte number” value was -1.85 ± 0.21.

As for `C=C1CC[C@H](O)C/C1=C/C=C1\CCC[C@]2(C)[C@@H]([C@H](C)/C=C/[C@H](C)C(C)C)CC[C@@H]12` [Vitamin D2], the “MBP+ mature oligodendrocyte number” value came to 21.5.

As to `CCCCOc1ccc(C(=O)CCN2CCCCC2)cc1` [Dyclonine HCl], the “MBP+ mature oligodendrocyte number” value is -1.91.

With `O=C(O)COc1ccc(C(=O)c2cccs2)c(Cl)c1Cl` [Tienilic acid], the “MBP+ mature oligodendrocyte number” value was -0.904.

On to `C=C1C(=O)O[C@H]2[C@H]1CC/C(C)=C/CC[C@@]1(C)O[C@@H]21` [(-)-Parthenolide], for which the “MBP+ mature oligodendrocyte number” value is less than -4.81.

Regarding `C=C1C(=O)O[C@H]2[C@H]1CC/C(C)=C/CC[C@@]1(C)O[C@@H]21` [Parthenolide], the “MBP+ mature oligodendrocyte number” value is less than -3.97.

For the compound `COc1ccc(CCn2nnnc2C2(c3ccc(C)cc3)CC2)cc1` [Mephetyl tetrazole], the “MBP+ mature oligodendrocyte number” value came to 1.5.

Take `COc1ccc(CCC(=O)Nc2nc3ccc(Cl)cc3s2)cc1OC`: the “MBP+ mature oligodendrocyte number” value turned out to be 6.4.

`CN1[C@@H]2CC[C@H]1C[C@@H](OC(=O)C(O)c1ccccc1)C2` (mixture of isomers) [DL-Homatropine hydrobromide]: the “MBP+ mature oligodendrocyte number” value was 3.48.

`O=[N+]([O-])c1cn2c(n1)OC[C@@H](OCc1ccc(OC(F)(F)F)cc1)C2`: the “MBP+ mature oligodendrocyte number” value worked out at 0.545.

For `Cn1nnc2c(C(N)=O)ncn2c1=O` [Temozolomide], the “MBP+ mature oligodendrocyte number” value is 1.16.

Consider `CC(C)(C)CC(C)(C)c1ccc(OCCOCC[N+](C)(C)Cc2ccccc2)cc1` [Benzethonium Chloride], for which the “MBP+ mature oligodendrocyte number” value is less than -6.35.

For `CC(C)NCC(O)COc1cccc2[nH]ccc12` (stereo unspecified) [Pindolol], the “MBP+ mature oligodendrocyte number” value is -0.0098.

`CC(CN(C)C)CN1c2ccccc2CCc2ccccc21` (stereo unspecified) [Trimipramine maleate]: the “MBP+ mature oligodendrocyte number” value is -3.5.

On to `Cn1c(N2CCCCS2(=O)=O)nc(C(=O)NCc2ccc(F)cc2)c(O)c1=O`, for which the “MBP+ mature oligodendrocyte number” value is less than -6.7.

With `COC(=O)[C@H]1[C@H]2C[C@H]3c4[nH]c5ccccc5c4CCN3C[C@H]2CC[C@@H]1O` [Rauwolscine hydrochloride], the “MBP+ mature oligodendrocyte number” value was -0.675.
